Measurements reported in the RNAGym collection of RNA variant scans (doi:10.1073/pnas.2313332121).
Variants at the floor of the assay are shown more often than the library holds them.

B1: TPR 5TU (parent)
chain: GGAUCUUCUCGAUCUAACAAAAAAGACAAAUCUGCCACAAAGCUUGAGAGCAUCUUCGGAUGCAGAGGCGGCAGCCUUCGGUGGCGCGAUAGCGCCAACGUUCUCAACUAUGACACGCAAAACGCGUGCUCCGUUGAAUGGAGUUUAUCAUG

Variants of: B1
Assay: polymerase ribozyme fitness, log enrichment relative to wild type (log ratio); higher = more active; in vitro selection for triplet polymerase activity
Summary of the method: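 Only genotypes with ≥10 input reads and ≥1 read per output were kept after Illumina sequencing of input and output libraries. These libraries were PCR-built, transcribed mutants of each subunit of a heterodimeric triplet polymerase ribozyme, each put through one triplicate in vitro selection round with frozen incubation at −7 °C, gel excision of extended constructs, streptavidin-bead capture and RT-PCR. Fitness is a logarithmic ratio of genotype enrichment to wild-type enrichment, from inverse-variance-weighted replicate averages, with the logarithm in base 2.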

C79A U145C and C79A U151C cannot be ordered by “polymerase ribozyme fitness (log ratio)” value: ≤ -4.2 for the first, ≤ -4.2 for the second.

C79G A110G and C79G A122C G140A cannot be ordered by “polymerase ribozyme fitness (log ratio)” value: ≤ -4.2 for the first, ≤ -4.2 for the second.

C79G C85G C96G U146A C149A and C79G C85U C93A A106G A137U G141U cannot be ordered by “polymerase ribozyme fitness (log ratio)” value: ≤ -4.2 for the first, ≤ -4.2 for the second.

C79G C93U and C79G C114G G133C cannot be ordered by “polymerase ribozyme fitness (log ratio)” value: ≤ -4.2 for the first, ≤ -4.2 for the second.

C79G G81U G92A C95A and C79G G84U G92C G94C C116A cannot be ordered by “polymerase ribozyme fitness (log ratio)” value: ≤ -4.2 for the first, ≤ -4.2 for the second.

C79G G86C C99U U101G A142C and C79G U82C A89U G92U cannot be ordered by “polymerase ribozyme fitness (log ratio)” value: ≤ -4.2 for the first, ≤ -4.2 for the second.

C79G U82C G126A A150G and C79G U101G U109G U135C U148A cannot be ordered by “polymerase ribozyme fitness (log ratio)” value: ≤ -4.2 for the first, ≤ -4.2 for the second.

C79G U109A and C79U A98G C125G cannot be ordered by “polymerase ribozyme fitness (log ratio)” value: ≤ -4.2 for the first, ≤ -4.2 for the second.

C79U C85A C132A and C79U C85A U111A G141C cannot be ordered by “polymerase ribozyme fitness (log ratio)” value: ≤ -4.2 for the first, ≤ -4.2 for the second.

C79U C85G G124U and C79U C99A G100C cannot be ordered by “polymerase ribozyme fitness (log ratio)” value: ≤ -4.2 for the first, ≤ -4.2 for the second.

Going from C79U C108G U109G U139G U145C to C79U G84A, the “polymerase ribozyme fitness (log ratio)” value rises from ≤ -4.2 to -3.04.

C79U G86U and C79U G88A cannot be ordered by “polymerase ribozyme fitness (log ratio)” value: ≤ -4.2 for the first, ≤ -4.2 for the second.

C79U G88C and C79U G92A U146G U151A cannot be ordered by “polymerase ribozyme fitness (log ratio)” value: ≤ -4.2 for the first, ≤ -4.2 for the second.

Going from C79U G140C to C79U U109G, the “polymerase ribozyme fitness (log ratio)” value falls from -4.1 to ≤ -4.2.

First: G80A A119U
Second: G80A C85A A142C
The “polymerase ribozyme fitness (log ratio)” value of the first is higher: -0.405 for the first, -2.14 for the second.

Compared with G80A C114U A137C, G80A C132U is higher in “polymerase ribozyme fitness (log ratio)” value: -3.92 for the first, -0.678 for the second.

G80A G88U C149A and G80A U104C A138C cannot be ordered by “polymerase ribozyme fitness (log ratio)” value: ≤ -4.2 for the first, ≤ -4.2 for the second.

First: G80A U144G
Second: G80C A91G
The “polymerase ribozyme fitness (log ratio)” value of the first is higher: 1.27 for the first, ≤ -4.2 for the second.

G80C C87U A89C and G80C C95U C99A G133U cannot be ordered by “polymerase ribozyme fitness (log ratio)” value: ≤ -4.2 for the first, ≤ -4.2 for the second.

Compared with G80C C103G G124A A147G, G80C C131G is higher in “polymerase ribozyme fitness (log ratio)” value: ≤ -4.2 for the first, -4.04 for the second.

Compared with G80C G83U C118A G141C, G80C G84C G133A G141C is lower in “polymerase ribozyme fitness (log ratio)” value: -3.94 for the first, ≤ -4.2 for the second.

G80C G94A and G80C U90G C105A A113U U127G U135A cannot be ordered by “polymerase ribozyme fitness (log ratio)” value: ≤ -4.2 for the first, ≤ -4.2 for the second.

G80U A110C G141U and G80U C96A U109A cannot be ordered by “polymerase ribozyme fitness (log ratio)” value: ≤ -4.2 for the first, ≤ -4.2 for the second.

G80U C103G G152A and G80U C105U C108U U109G cannot be ordered by “polymerase ribozyme fitness (log ratio)” value: ≤ -4.2 for the first, ≤ -4.2 for the second.

First: G80U C125A
Second: G80U G83C G100U A106G
The “polymerase ribozyme fitness (log ratio)” value of the first is higher: -1.04 for the first, ≤ -4.2 for the second.

Going from G80U G84A G126C C132U U145A to G80U G84U G94A G117A U134A, the “polymerase ribozyme fitness (log ratio)” value falls from -3.25 to ≤ -4.2.

First: G80U U109C G143C
Second: G81A
The “polymerase ribozyme fitness (log ratio)” value of the first is lower: -4.04 for the first, -0.305 for the second.

G81A A91U and G81A C87U A91U G112U G143A cannot be ordered by “polymerase ribozyme fitness (log ratio)” value: ≤ -4.2 for the first, ≤ -4.2 for the second.

Going from G81A C87U G100C G133U G141U to G81A C93U C95U, the “polymerase ribozyme fitness (log ratio)” value rises from ≤ -4.2 to -1.11.

First: G81A C95A A98U
Second: G81A C105U G124A G128U U135A A138C
The “polymerase ribozyme fitness (log ratio)” value of the first is higher: -0.289 for the first, ≤ -4.2 for the second.

G81A G84C A115G C125A and G81A G88A cannot be ordered by “polymerase ribozyme fitness (log ratio)” value: ≤ -4.2 for the first, ≤ -4.2 for the second.

G81A G88U C108G C116U and G81A G94C C99U A138U cannot be ordered by “polymerase ribozyme fitness (log ratio)” value: ≤ -4.2 for the first, ≤ -4.2 for the second.

First: G81A G152U
Second: G81A U90C A150G
The “polymerase ribozyme fitness (log ratio)” value of the first is higher: -3.09 for the first, ≤ -4.2 for the second.

Compared with G81A U127C, G81C is higher in “polymerase ribozyme fitness (log ratio)” value: -2.04 for the first, -0.471 for the second.

First: G81C A89U C96G
Second: G81C A91G A107G
The “polymerase ribozyme fitness (log ratio)” value of the first is higher: -0.784 for the first, ≤ -4.2 for the second.

First: G81C A98U A107G
Second: G81C C85G C95G
The “polymerase ribozyme fitness (log ratio)” value of the first is lower: ≤ -4.2 for the first, -3.07 for the second.

Going from G81C C85U to G81C C93U U101G, the “polymerase ribozyme fitness (log ratio)” value rises from 0.0549 to 0.439.

G81C C93U U130G C131U A150U and G81C C96A U101G U104G C114U A137U cannot be ordered by “polymerase ribozyme fitness (log ratio)” value: ≤ -4.2 for the first, ≤ -4.2 for the second.

Going from G81C C103U U134G to G81C C132G, the “polymerase ribozyme fitness (log ratio)” value falls from -2.49 to -3.75.

First: G81C G84U G126C
Second: G81C G140C
The “polymerase ribozyme fitness (log ratio)” value of the first is higher: -2.04 for the first, -3.7 for the second.

First: G81C G141C
Second: G81C G143C
The “polymerase ribozyme fitness (log ratio)” value of the first is higher: -0.0339 for the first, -2.03 for the second.

With G81U the “polymerase ribozyme fitness (log ratio)” value was -0.702.
